According to a collection of fitness landscapes (doi:10.1126/science.1257360):
The list shows a part of the results.

B1: PhoQ; a variant is named by its letters at X, in order, P23837 (parent)
chain: MKKLLRLFFPLSLRVRFLLATAAVVLVLSLAYGMVALIGYSVSFDKTTFRLLRGESNLFYTLAKWENNKLHVELPENIDKQSPTMTLIYDENGQLLWAQRDVPWLMKMIQPDWLKSNGFHEIEADVNDTSLLLSGDHSIQQQLQEVREDDDDAEMTHSVAVNVYPATSRMPKLTIVVVDTIPVELKSSYMVWSWFIYVLSANLLLVIPLLWVAAWWSLRPIEALAKEVRELEEHNRELLNPATTRELTSLVRNLNRLLKSERERYDKYRTTLTDLTHSLKTPLXXLQXXLRSLRSEKMSVSDAEPVMLEQISRISQQIGYYLHRASMRGGTLLSRELHPVAPLLDNLTSALNKVYQRKGVNISLDISPEISFVGEQNDFVEVMGNVLDNACKYCLEFVEISARQTDEHLYIVVEDDGPGIPLSKREVIFDRGQRVDTLRPGQGVGLAVAREITEQYEGKIVAGESMLGGARMEVIFGRQHSAPKDE

Variants of: B1
Experiment: enrichment ratio after two sorts for PhoP signalling (ratio (wild type AVST 3.29)); higher = more functional
Conditions: with PhoP (E. coli)

| Variant | enrichment ratio |
| --- | --- |
| PAWM | ≤ 0.25 |
| PYPR | ≤ 0.25 |
| KWSH | ≤ 0.25 |
| TDKT | ≤ 0.25 |
| QKQV | ≤ 0.25 |
| YWPG | ≤ 0.25 |
| DTTF | ≤ 0.25 |
| IEDT | ≤ 0.25 |
| ENFI | ≤ 0.25 |
| KVKL | ≤ 0.25 |
| TKMR | ≤ 0.25 |
| AKTM | 0.775 |
| DRGA | ≤ 0.25 |
| EYVG | ≤ 0.25 |
| IGIA | ≤ 0.25 |
| QFPA | ≤ 0.25 |
| MNEP | ≤ 0.25 |
| PACT | ≤ 0.25 |
| VKPW | ≤ 0.25 |
| IGIF | ≤ 0.25 |
| GGLH | 2.42 |
| KTPA | ≤ 0.25 |
| QERW | ≤ 0.25 |
| RCHW | ≤ 0.25 |

| Variant | enrichment ratio |
| --- | --- |
| EADH | ≤ 0.25 |
| IRLG | ≤ 0.25 |
| DDPS | ≤ 0.25 |
| MEEE | ≤ 0.25 |
| TWRV | ≤ 0.25 |
| KEFA | ≤ 0.25 |
| DMPK | ≤ 0.25 |
| NNLE | ≤ 0.25 |
| PKLP | 0.31 |
| TAVV | 1.05 |
| WSFV | ≤ 0.25 |
| YERI | ≤ 0.25 |
| KDEG | ≤ 0.25 |
| SSPY | ≤ 0.25 |
| HIST | ≤ 0.25 |
| GMTR | ≤ 0.25 |
| EKTY | ≤ 0.25 |
| WEFC | ≤ 0.25 |
| SLGY | 1.84 |
| AFIV | ≤ 0.25 |
| DYWR | ≤ 0.25 |
| ATCF | 10 |
| FETM | 3.22 |
| PASL | ≤ 0.25 |

| Variant | enrichment ratio |
| --- | --- |
| EPDN | ≤ 0.25 |
| INEE | ≤ 0.25 |
| RELK | ≤ 0.25 |
| TIFT | ≤ 0.25 |
| KMTI | ≤ 0.25 |
| SYCT | ≤ 0.25 |
| YLHC | ≤ 0.25 |
| GNNM | ≤ 0.25 |
| QLKF | ≤ 0.25 |
| TRET | ≤ 0.25 |
| DAFI | ≤ 0.25 |
| ELIP | ≤ 0.25 |
| IKEA | ≤ 0.25 |
| FQCV | ≤ 0.25 |
| TLYP | 1.58 |
| HFCW | ≤ 0.25 |
| KTDP | ≤ 0.25 |
| DCVV | ≤ 0.25 |
| RVLD | ≤ 0.25 |
| IVDF | ≤ 0.25 |
| KNLW | ≤ 0.25 |
| HEVQ | ≤ 0.25 |
| QMCK | ≤ 0.25 |
| GTAH | ≤ 0.25 |

| Variant | enrichment ratio |
| --- | --- |
| ALSN | 6.57 |
| MKWC | ≤ 0.25 |
| FMRH | ≤ 0.25 |
| AFYA | ≤ 0.25 |
| ISCW | ≤ 0.25 |
| KGHI | ≤ 0.25 |
| APWP | ≤ 0.25 |
| IVYH | ≤ 0.25 |
| HELH | ≤ 0.25 |
| KFLS | ≤ 0.25 |
| VICN | ≤ 0.25 |
| SKQC | ≤ 0.25 |
| ILYF | ≤ 0.25 |
| LELV | 3.1 |
| GPPQ | ≤ 0.25 |
| QTKT | ≤ 0.25 |
| DFNS | ≤ 0.25 |
| SWCT | ≤ 0.25 |
| PGSH | ≤ 0.25 |
| GYFR | ≤ 0.25 |
| VMNC | ≤ 0.25 |
| SWFP | ≤ 0.25 |
| YMRN | ≤ 0.25 |
| LMVL | ≤ 0.25 |

| Variant | enrichment ratio |
| --- | --- |
| VWYG | ≤ 0.25 |
| VQKC | ≤ 0.25 |
| YFIY | ≤ 0.25 |
| PPCN | ≤ 0.25 |
| SFPP | ≤ 0.25 |
| QAVW | ≤ 0.25 |
| WDAM | ≤ 0.25 |
| WESA | ≤ 0.25 |
| TTRA | ≤ 0.25 |
| WFGW | ≤ 0.25 |
| QRCG | ≤ 0.25 |
| KFSE | ≤ 0.25 |
| VMWM | ≤ 0.25 |
| WHKK | ≤ 0.25 |
| NVAD | ≤ 0.25 |
| SVRT | ≤ 0.25 |
| RLQY | ≤ 0.25 |
| LSGV | ≤ 0.25 |
| WWMS | ≤ 0.25 |
| LAGT | ≤ 0.25 |
| AHNS | ≤ 0.25 |
| HVMM | ≤ 0.25 |
| HNLP | ≤ 0.25 |
| DALP | ≤ 0.25 |

| Variant | enrichment ratio |
| --- | --- |
| NHPG | ≤ 0.25 |
| MSDC | ≤ 0.25 |
| MAGY | 3.31 |
| MLFI | ≤ 0.25 |
| QLAE | ≤ 0.25 |
| YMCN | ≤ 0.25 |
| HFWL | ≤ 0.25 |
| FLFC | ≤ 0.25 |
| GKII | ≤ 0.25 |
| VHWY | ≤ 0.25 |
| KNPK | ≤ 0.25 |
| SELG | 25.3 |
| FDGC | ≤ 0.25 |
| QANS | ≤ 0.25 |
| NAWE | ≤ 0.25 |
| VTHQ | ≤ 0.25 |
| LPFN | ≤ 0.25 |
| NDFQ | ≤ 0.25 |
| RRYV | ≤ 0.25 |
| PMMP | ≤ 0.25 |
| DEII | ≤ 0.25 |
| VTFL | ≤ 0.25 |
| PMSD | ≤ 0.25 |
| MCTN | ≤ 0.25 |

| Variant | enrichment ratio |
| --- | --- |
| DNPY | ≤ 0.25 |
| FCDE | ≤ 0.25 |
| KFHY | ≤ 0.25 |
| TLGW | ≤ 0.25 |
| IKDC | ≤ 0.25 |
| WFVT | ≤ 0.25 |
| LGVE | ≤ 0.25 |
| TIGC | 5.81 |
| DKVA | ≤ 0.25 |
| RTCV | ≤ 0.25 |
| LFMD | ≤ 0.25 |
| FICA | ≤ 0.25 |
| FPQD | ≤ 0.25 |
| HAYA | ≤ 0.25 |
| YCLS | 1.42 |
| EMLH | ≤ 0.25 |
| PVTC | ≤ 0.25 |
| MDMG | ≤ 0.25 |
| REGR | ≤ 0.25 |
| SAPH | ≤ 0.25 |
| RQFL | ≤ 0.25 |
| TPVF | ≤ 0.25 |
| KFNL | ≤ 0.25 |
| REKV | ≤ 0.25 |

| Variant | enrichment ratio |
| --- | --- |
| RPLL | ≤ 0.25 |
| FPGN | ≤ 0.25 |
| YLWR | ≤ 0.25 |
| GARY | ≤ 0.25 |
| NIQP | ≤ 0.25 |
| VDRN | ≤ 0.25 |
| DVAY | ≤ 0.25 |
| YGSC | ≤ 0.25 |
| LQYF | ≤ 0.25 |
| APVD | ≤ 0.25 |
| HPGT | ≤ 0.25 |
| VPYH | ≤ 0.25 |
| DRYL | ≤ 0.25 |
| QKPC | ≤ 0.25 |
| NKWQ | ≤ 0.25 |
| FPSY | ≤ 0.25 |
| DTDS | ≤ 0.25 |
| PPAG | ≤ 0.25 |
| QPFI | ≤ 0.25 |
| KIPL | ≤ 0.25 |
| GEYR | ≤ 0.25 |
| HMFE | ≤ 0.25 |
| EYQP | ≤ 0.25 |
| ELLY | ≤ 0.25 |

| Variant | enrichment ratio |
| --- | --- |
| AHAS | ≤ 0.25 |
| APQF | ≤ 0.25 |
| ERPD | ≤ 0.25 |
| PFCF | ≤ 0.25 |
| TVNF | 2.59 |
| FVFI | ≤ 0.25 |
| MFCR | ≤ 0.25 |
| QNGI | ≤ 0.25 |
| PVAP | ≤ 0.25 |
| MTIG | ≤ 0.25 |
| KVRF | ≤ 0.25 |
| EHMN | ≤ 0.25 |
| RIHW | ≤ 0.25 |
| GRDH | ≤ 0.25 |
| EQII | ≤ 0.25 |
| WPND | ≤ 0.25 |
| KSWR | ≤ 0.25 |
| WDTF | ≤ 0.25 |
| QGPC | ≤ 0.25 |
| TMMP | ≤ 0.25 |
| HGKH | ≤ 0.25 |
| FNKS | ≤ 0.25 |
| SPWM | ≤ 0.25 |
| RGRQ | ≤ 0.25 |

| Variant | enrichment ratio |
| --- | --- |
| NVSA | ≤ 0.25 |
| DIIQ | ≤ 0.25 |
| LNKQ | ≤ 0.25 |
| DNHP | ≤ 0.25 |
| VTWN | ≤ 0.25 |
| VIIM | ≤ 0.25 |
| EPAL | ≤ 0.25 |
| SRRF | ≤ 0.25 |
| ILVG | ≤ 0.25 |
| KKLW | ≤ 0.25 |
| HTHF | ≤ 0.25 |
| TLGR | ≤ 0.25 |
| RNYP | ≤ 0.25 |
| VRRT | ≤ 0.25 |
| DSHM | ≤ 0.25 |
| FTNV | ≤ 0.25 |
| SWWC | ≤ 0.25 |
| NNYD | ≤ 0.25 |
| QGKV | ≤ 0.25 |
| IYVA | ≤ 0.25 |
| NKAA | ≤ 0.25 |
| FYPA | ≤ 0.25 |
| GGRS | ≤ 0.25 |
| HHKE | ≤ 0.25 |

| Variant | enrichment ratio |
| --- | --- |
| FSKW | ≤ 0.25 |
| VLHR | ≤ 0.25 |
| WQFK | ≤ 0.25 |
| TWND | ≤ 0.25 |
| QCWQ | ≤ 0.25 |
| PDLK | ≤ 0.25 |
| TCFL | ≤ 0.25 |
| AAGM | 4.06 |
| TFKS | ≤ 0.25 |
| AQAC | 0.268 |
| PEFY | ≤ 0.25 |
| HGNI | ≤ 0.25 |
| RQRI | ≤ 0.25 |
| YCDY | ≤ 0.25 |
| LNCH | ≤ 0.25 |
| THTC | 2.02 |
| YWGA | ≤ 0.25 |
| EKLW | ≤ 0.25 |
| MVRW | ≤ 0.25 |
| QREP | ≤ 0.25 |
| MFLP | ≤ 0.25 |
| ILVQ | ≤ 0.25 |
| PLEL | ≤ 0.25 |
| TAAI | 7.96 |

| Variant | enrichment ratio |
| --- | --- |
| TREP | ≤ 0.25 |
| YLQV | ≤ 0.25 |
| GWGP | ≤ 0.25 |
| MLSY | ≤ 0.25 |
| LFYM | ≤ 0.25 |
| LPCT | ≤ 0.25 |
| DARD | ≤ 0.25 |
| RWDG | ≤ 0.25 |
| RDNT | ≤ 0.25 |
| QMYP | ≤ 0.25 |
| DFFM | ≤ 0.25 |
| SQWF | ≤ 0.25 |
| DTCT | ≤ 0.25 |
| KEYA | ≤ 0.25 |
| SEPF | ≤ 0.25 |
| NWSP | ≤ 0.25 |
| SNFQ | ≤ 0.25 |
| RILT | ≤ 0.25 |
| YDCC | ≤ 0.25 |
| TLHF | ≤ 0.25 |
| ASHA | ≤ 0.25 |
| HICC | ≤ 0.25 |
| LMMY | ≤ 0.25 |
| GIHR | ≤ 0.25 |

| Variant | enrichment ratio |
| --- | --- |
| SDQL | ≤ 0.25 |
| WFHN | ≤ 0.25 |
| KVLH | ≤ 0.25 |
| YPQC | ≤ 0.25 |
| FRYD | ≤ 0.25 |
| WQIR | ≤ 0.25 |
| RVPM | ≤ 0.25 |
| DHHY | ≤ 0.25 |
| GNDC | ≤ 0.25 |
| MFAI | ≤ 0.25 |
| QYCN | ≤ 0.25 |
| QPAP | ≤ 0.25 |
| QNMV | ≤ 0.25 |
| NQQP | ≤ 0.25 |
| LCNA | ≤ 0.25 |
| PKTR | ≤ 0.25 |
| SIFH | ≤ 0.25 |
| RFPP | ≤ 0.25 |
